{
  "source": "PubChem BioAssay AID686979",
  "about": "(National Center for Advancing Translational Sciences (NCATS), 2013)",
  "note": "Out of some 420,000 compounds screened, about 50,000 (12%) were called active. About 26% were inconclusive and are not listed. Calls come from the whole dose curve; as a rule, active = well fitted inhibition curve with a large enough effect; inconclusive = small, poorly fitted or top-dose-only effect; inactive = flat fitted curve, though single readings scatter. The list shows a part of the results, in another mix than the full data. % is set by controls: 0 for no effect and ±100 for the full control effect; potency is the fitted concentration of half-maximal effect.",
  "data": [
    {"experiment": "qHTS for Inhibitors of human tyrosyl-DNA phosphodiesterase 1 (TDP1): qHTS in cells in presence of CPT; note: nearly all actives have a fitted effect of over 55% in size", "conditions": "chicken DT40 Tdp1-/-;hTDP1 cells + 20 nM CPT, ATP luminescence, 48 h; series mostly up to 46.2 µM; activity change, negative = growth inhibition: at the top concentration", "how_it_was_run": "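Cell growth measured by CellTiter-Glo luminescence after a minimum 48 h, 37 C compound exposure with 20 nM CPT in Tdp1-knockout DT40 cells stably expressing hTDP1, seeded 400/well; qHTS titration format.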", "values": [
      {"smiles": "CCOC(=O)c1c(C)[nH]c(N=Nc2cc(C(=O)O)cc(C(=O)O)c2)c1C", "activity change, negative = growth inhibition": "inactive: 30.4%"},
      {"smiles": "O=C(COC(=O)c1ccc(CO)cc1)c1ccc(S(=O)(=O)N2CCCCC2)cc1", "activity change, negative = growth inhibition": "inactive: -14.7%"},
      {"smiles": "CCO[C@H]1OC(C(=O)NCc2ccccc2)=C[C@@H](c2ccccc2)[C@@H]1CCCO", "activity change, negative = growth inhibition": "inactive: -24.9%"},
      {"smiles": "O=C(CNC(=O)c1ccccc1)OC(C(=O)Nc1cc(C(F)(F)F)ccc1Cl)c1ccccc1", "note": "(stereo not given)", "activity change, negative = growth inhibition": "inactive: -17.8%"},
      {"smiles": "CC(=O)c1ccc(NC(=O)C2=CC(c3ccc4c(c3)OCO4)=NS(=O)(=O)N2C)cc1", "activity change, negative = growth inhibition": "inactive: -23.5%"},
      {"smiles": "COc1ccc(OC)c(NC(=O)c2cc(-c3c(C)cc(C)cc3O)n[nH]2)c1", "activity change, negative = growth inhibition": "inactive: 0.31%"},
      {"smiles": "COc1ccccc1Nc1cc(C(=O)NC2CCCC2)c2ccccc2n1", "activity change, negative = growth inhibition": "inactive: -23.6%"},
      {"smiles": "COC(=O)C[C@H]1C[C@@H]2c3cc(NS(=O)(=O)c4ccc(OC)cc4)ccc3O[C@@H]2[C@H](CO)O1", "activity change, negative = growth inhibition": "inactive: 6.86%"},
      {"smiles": "COc1ccccc1NC(=O)NCCN1CCN(c2cccc(Cl)c2)CC1", "activity change, negative = growth inhibition": "inactive: -26.9%"},
      {"smiles": "Cn1c(=S)c2[nH]c(SCCN)nc2n(C)c1=O", "Potency": "active: 5.8 µM"},
      {"smiles": "COc1ccc2[nH]c3c(C)c4cc[n+](C)cc4c(C)c3c2c1", "Potency": "active: 0.259 µM"},
      {"smiles": "CC(=O)Nc1nc2ccccc2n1Cc1ccccc1Cl", "Potency": "active: 20.6 µM"},
      {"smiles": "C[C@@H]1CN([C@H](C)CO)C(=O)CCCn2cc(nn2)CO[C@H]1CN(C)C(=O)c1cc(-c2ccccc2)on1", "activity change, negative = growth inhibition": "inactive: 2.09%"},
      {"smiles": "CCCn1c(SCC(=O)c2cc(C)n(-c3ccc4c(c3)OCO4)c2C)n[nH]c1=O", "Potency": "active: 23.1 µM"},
      {"smiles": "COc1ccccc1NC(=O)Cn1nnc(C(=O)NCc2ccc3c(c2)OCO3)c1N", "activity change, negative = growth inhibition": "inactive: -22.9%"},
      {"smiles": "COCCCCC(=NOCCN)c1ccc(C(F)(F)F)cc1", "Potency": "active: 13.3 µM"},
      {"smiles": "Cc1ccc(NC(=O)c2cc(-c3cccs3)on2)cc1C", "activity change, negative = growth inhibition": "inactive: -9.6%"},
      {"smiles": "Cc1ccc2c(c1)CC1(CN2C)C(=O)OC(C)(C)OC1=O", "activity change, negative = growth inhibition": "inactive: -14.9%"},
      {"smiles": "CCn1nc(C)c(Br)c1C(=O)Sc1ccccc1Cl", "Potency": "active: 3.66 µM"},
      {"smiles": "COCCN(C(=O)c1snc(C(N)=O)c1N)C(C(=O)NC1CCCC1)c1cc(OC)c(OC)c(OC)c1", "note": "(stereo not given)", "activity change, negative = growth inhibition": "inactive: 2.35%"},
      {"smiles": "c1ccc(-c2cc(CSc3nc4ccccc4[nH]3)on2)cc1", "Potency": "active: 11.6 µM"},
      {"smiles": "CC12CCC(=O)C=C1CCC1C2CCC2(C)C1CC[C@]2(O)C(=O)CO", "note": "(stereo not given in full)", "activity change, negative = growth inhibition": "inactive: -24.5%"},
      {"smiles": "O=C(COC(=O)c1n[nH]c(=O)c2ccccc12)c1ccccc1", "activity change, negative = growth inhibition": "inactive: -3.68%"},
      {"smiles": "CCN(CC)CCOC(=O)C1(C2CCCCC2)CCCCC1", "activity change, negative = growth inhibition": "inactive: -8.11%"},
      {"smiles": "O=c1c2cc(-c3ccccc3)sc2nc2n1N=C(c1cccs1)CS2", "Potency": "active: 16.4 µM"},
      {"smiles": "CCCCCCCCCCCCCCCC(=O)OC/C=C(C)/C=C/C=C(C)/C=C/C1=C(C)CCCC1(C)C", "Potency": "inactive"},
      {"smiles": "CC(=O)OCC(=O)[C@@]1(O)CC[C@H]2[C@@H]3CCC4=CC(=O)CC[C@]4(C)[C@H]3[C@@H](O)C[C@@]21C", "activity change, negative = growth inhibition": "inactive: -20.8%"},
      {"smiles": "O=S(=O)(NCCc1ccccc1)c1ccc(Cl)nc1", "activity change, negative = growth inhibition": "inactive: 32.2%"},
      {"smiles": "Cc1ccc(Cc2c(-c3ccco3)nc3c4ccccc4ccn23)cc1", "Potency": "active: 18.4 µM"},
      {"smiles": "CC1(C)CC(=O)C(C(C2=C(O)CC(C)(C)CC2=O)c2ccc(Cl)c([N+](=O)[O-])c2)C(=O)C1", "note": "(stereo not given)", "activity change, negative = growth inhibition": "inactive: 32.3%"},
      {"smiles": "Cc1cccc(N=Nc2cn[nH]c2-c2ccco2)c1", "activity change, negative = growth inhibition": "inactive: 33.3%"},
      {"smiles": "CCC(C)(C)n1nnnc1C(c1ccc(O)c(OC)c1)N1CCc2ccccc2C1", "note": "(stereo not given)", "Potency": "active: 7.31 µM"},
      {"smiles": "C=CCOC(=O)/C(=C\\c1cccc2ccccc12)NC(=O)c1ccccc1", "activity change, negative = growth inhibition": "inactive: -24.9%"},
      {"smiles": "Cc1ccccc1-c1nc(CN2CCCC2c2ccc(F)cc2)c(C)o1", "note": "(stereo not given)", "Potency": "active: 20.6 µM"},
      {"smiles": "COc1cc(OC)cc(C(=O)N2CCCc3ccccc32)c1", "Potency": "active: 16.4 µM"},
      {"smiles": "OC(CCN1CCCCC1)(c1ccccc1)C1C[C@@H]2C=C[C@H]1C2", "note": "(stereo not given in full)", "activity change, negative = growth inhibition": "inactive: -25.6%"},
      {"smiles": "COC(=O)c1ccc(NC(=O)C[n+]2ccccc2)cc1", "activity change, negative = growth inhibition": "inactive: 34.9%"},
      {"smiles": "O=C1[C@H]2[C@@H](c3ccc(C(F)(F)F)cc3)N[C@]3(CCCN(Cc4ccc(Cl)cc4)C3=O)[C@H]2C(=O)N1Cc1ccccc1", "Potency": "active: 16.4 µM"},
      {"smiles": "Cc1ccc(C(=O)N/C(=C/c2cccs2)C(=O)NCCc2c[nH]c3ccccc23)cc1", "activity change, negative = growth inhibition": "inactive: -15.9%"},
      {"smiles": "CCN1C(=O)N[C@@H](c2ccc(Br)cc2)C(C(C)=O)=C1C", "activity change, negative = growth inhibition": "inactive: 1.74%"},
      {"smiles": "CC(C)(C)[C@H]1C=C(C(=O)N2CCOCC2)O[C@@H](OCc2ccc(CO)cc2)C1", "activity change, negative = growth inhibition": "inactive: -19.8%"},
      {"smiles": "Clc1ccc(-n2cccc2)cn1", "activity change, negative = growth inhibition": "inactive: 12.5%"},
      {"smiles": "COc1ccc(/C=C(\\C#N)C(=O)OCC(=O)NC(C)c2ccccc2)cc1", "note": "(stereo not given)", "activity change, negative = growth inhibition": "inactive: 33.3%"},
      {"smiles": "O=C(NCc1ccccn1)[C@@H]1C[C@H]1[C@@H](NP(=O)(c1ccccc1)c1ccccc1)c1ccccc1", "activity change, negative = growth inhibition": "inactive: -19.9%"},
      {"smiles": "C[C@H](CO)N1C[C@H](C)[C@@H](CN(C)C(=O)Nc2ccc(C(F)(F)F)cc2)Oc2ccc(NC(=O)NC3CCCCC3)cc2C1=O", "activity change, negative = growth inhibition": "inactive: -8.82%"},
      {"smiles": "Cc1ccc(NC(=S)c2nc3ccccc3[nH]2)cc1", "Potency": "active: 13 µM"},
      {"smiles": "COc1ccc(CNC(=O)CS(=O)Cc2nc(-c3ccc(OC)c(OC)c3)oc2C)cc1", "note": "(stereo not given)", "activity change, negative = growth inhibition": "inactive: -18.6%"},
      {"smiles": "Cc1ccc(C)c(NC(=O)CCOc2ccccc2)c1", "activity change, negative = growth inhibition": "inactive: 3.09%"},
      {"smiles": "COC(=O)[C@@]12CCCCN1[C@H](c1ccc(-c3cc(C(C)=O)cs3)c(OC)c1)[C@H]1C(=O)N(C)C(=O)[C@H]12", "Potency": "active: 4.11 µM"},
      {"smiles": "Cc1cc(C)n(-c2nc3c(c(=O)[nH]c(=O)n3C)n2CC(O)COc2ccc(Cl)cc2Cl)n1", "note": "(stereo not given)", "Potency": "active: 6.51 µM"},
      {"smiles": "N#CC[C@H](Cc1ccccc1)N1CCN(CCc2ccccc2)CCC1=O", "activity change, negative = growth inhibition": "inactive: 6.02%"},
      {"smiles": "CCOC(=O)c1sc(=S)n(CC)c1NC(=O)C1CC1", "activity change, negative = growth inhibition": "inactive: 31.1%"},
      {"smiles": "N#Cc1c2c(c(Nc3ccc(F)cc3)n3c1nc1ccccc13)CCCC2", "Potency": "active: 16.4 µM"},
      {"smiles": "Cc1cccc(N=Nc2c(C)c(C#N)c(O)[nH]c2=O)c1", "activity change, negative = growth inhibition": "inactive: 32.9%"},
      {"smiles": "CCOC(=O)N1CCN(c2cc(=O)n(-c3ccccc3C)c(=O)[nH]2)CC1", "activity change, negative = growth inhibition": "inactive: -5.95%"},
      {"smiles": "COc1ccc(-c2cc(C(F)(F)F)nc(S(=O)(=O)CCCC(=O)Nc3ccccc3C(F)(F)F)n2)cc1OC", "Potency": "active: 1.16 µM"},
      {"smiles": "CC(=O)Nc1ccc(S(=O)(=O)N2CCN(c3cc(C)ccc3C)CC2)cc1", "Potency": "active: 16.4 µM"},
      {"smiles": "COc1ccccc1N1CCN(C(=O)CCSCc2ccccc2F)CC1", "activity change, negative = growth inhibition": "inactive: 28%"},
      {"smiles": "COC(=O)c1cc(S(=O)(=O)NCC2CCN(Cc3ccc(F)cc3)CC2)cn1C", "activity change, negative = growth inhibition": "inactive: 6.38%"},
      {"smiles": "O=C(NN=Cc1ccc2c(c1)CCC2)c1ccccc1[N+](=O)[O-]", "Potency": "active: 23.1 µM"}
    ]}
  ]
}
